According to US20230218573A1, “INDOLE COMPOUNDS FOR THE TREATMENT OF NEURODEGENERATIVE DISEASES” (GALYAN BIO, INC., priority 2020, published 2023):

Test system: Genes associated with the autophagy pathway
Experiment: Nanostring gene expression in STHdh 111/111 cells: genes associated with the autophagy pathway
Format: cell-based, mouse
Experimental: Gene expression of certain transcripts of interest were measured using Nanostring Technology. […] Some STHdh 7/7 and STHdh 111/111 cell samples were not heat shocked and some wells were treated with Compound 22 at the indicated concentration on for 48 hours (Table 12). Some STHdh 7/7 and STHdh 111/111 cell samples were heat shocked for 3 hours some wells were treated with Compound 22 at the indicated concentration on for 48 hours (Table 13). Cells are washed with PBS, trypsinised, and gathered in a 15 ml falcon tube. After a short spin down for 3 minutes at 300 g, the cell pellet was washed with PBS once, before it was frozen down in liquid nitrogen. RNA was extracted with a standard protocol. The nCounter® Mouse Neuropathology Panel (Nanostring, Seattle) was used for gene expression analysis according to the manufacturer’s protocols.

## Cc1[nH]c2ccc(C(=O)NCCN(C(C)C)C(C)C)cc2c1C [Compound 22]
10 µM or 20 µM, in comparison to untreated cells
  expression of genes associated with the autophagy pathway: upregulated
20 µM
  upregulation of Slc1a1, Ctse, Atp6vlh, Atp6v0d1, Ap3s1, Lamp1, Cd68, Gsub, Gba, Man2bl, Ppt1, Hexb, Npc1 and Gga1: ≥ 1 time the standard deviation from the mean
